In all, about 410,000 compounds went through this assay and about 5,000 (1.2%) were called active. The inconclusive results got no clear call from the source; some entries with a clear call stand among them for comparison. The call rests on the fitted dose curve; in most records, active means well fitted inhibition curve with a large enough effect; inconclusive means small, poorly fitted or top-dose-only effect; inactive means no such curve, though single readings can be large or run the other way. Potencies of inconclusive entries are doubtful fits and often do not repeat.
Test: qHTS for Inhibitors of TGF-b; further: nearly all actives have a fitted effect of over 65% in size
Conditions: HepG2 CAGA-GFP TGF-b/SMAD3 reporter, GFP fluorescence, 18 h, TGF-beta stimulated, 500 pg/mL final; series mostly up to 46.1 µM
Method in brief: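 HEPG2 CAGA-GFP reporter cells (1000/well, DMEM with 1% FBS) received compounds, then recombinant TGF-beta at 500 pg/mL final for 18 hours at 37 degrees C. Per-cell GFP summed per well was normalised to unstimulated and stimulated DMSO controls before curve fitting.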
Potency means the concentration at half of the fitted maximal effect; tags describe the fitted curve by direction and shape.

SMILES | Potency
O=C(c1ccc2c3c(cccc13)CC2)C1CCCN(Cc2ccccn2)C1 (stereo not drawn) | inactive
COc1ccc([C@H]2CC(=O)C=C(c3cc(C=O)ccc3OC)C2)cc1 | inconclusive: 8.91 µM [inhibitor, partial curve, poor fit]
COc1ccc(Cn2nnnc2C(c2ccc(C)cc2)N2CCN(C3CCCC3)CC2)cc1 (stereo not drawn) | inactive
Cc1ccc(NC(=O)c2cc(S(=O)(=O)N(C)C)ccc2N2CCCC2)cc1F | active: 10 µM
COc1ccc([C@@H]2CC(=O)[C@@H]3CN(S(=O)(=O)c4ccc(C)cc4)[C@H](c4cccc(Cl)c4)C[C@@H]3N2S(=O)(=O)c2ccccc2)cc1 | inconclusive: 6.31 µM [inhibitor, partial curve, poor fit]
Cc1ccc(OCC(=O)Nc2ccc3nc(SCC(N)=O)sc3c2)cc1 | inconclusive: 0.251 µM [inhibitor, full curve, poor fit]
CC(C)CC(=O)N1CCC(O)(CS(=O)(=O)Cc2ccccc2Cl)CC1 | inconclusive: 14.1 µM [inhibitor, partial curve, poor fit]
Cc1ccc(C(=O)NNC(=O)c2ccccc2O)cc1S(=O)(=O)N1CCCCC1 | inactive
Cc1ccc(C(c2c(C)nn(-c3ccccc3)c2N)c2c(C)nn(-c3ccccc3)c2N)cc1 | inconclusive: 6.31 µM [inhibitor, single point]
COC(=O)c1ccc(NC(=O)c2cccc(Cl)c2)o1 | inactive
O=C(CSc1nc2c([nH]c3ccccc32)c(=O)n1-c1ccc(F)cc1)NCc1ccco1 | inactive
Cn1c(O)c(C2=c3ccccc3=NC2=O)[nH]c1=S | inconclusive: 35.5 µM [inhibitor, partial curve, poor fit]
CCSc1nnc2c(n1)OC(c1sccc1C)N(C(C)=O)c1ccccc1-2 (stereo not drawn) | inconclusive: 25.1 µM [inhibitor, single point]
CC(C)N1CCSC1=S | inactive
Cc1ccc(SCC(=O)OCC(=O)NC2(C#N)CCCCC2)cc1 | inactive
CCCOc1ccc(NC(=O)CC2C(=O)N(c3ccc(C)cc3)C(=O)N2C2CCCC2)cc1 (stereo not drawn) | inconclusive: 28.2 µM [inhibitor, single point]
CCOC(=O)N1CCN(C(=O)CNC(=O)c2nn(-c3ccc(OC)c(Cl)c3)c(=O)c3ccccc23)CC1 | inactive
OC[C@@H]1CN(Cc2ccc(Cl)cc2)C[C@H](n2cnc3c(N4CCN(c5ccccc5)CC4)ncnc32)O1 | inconclusive: 11.2 µM [inhibitor, partial curve, poor fit]
Cc1ccc2c(c1)C1CN(C)CCC1N2S(=O)(=O)c1ccc(C#N)cc1 (stereo not drawn) | inactive
CC1CC(C)CN(S(=O)(=O)c2cccc(C(=O)N3CCN(c4ccc(F)cc4)CC3)c2)C1 (stereo not drawn) | inconclusive: 17.8 µM [inhibitor, single point]
C(=C\c1nc(N2CCCC2)c2ccccc2n1)/c1ccccc1 | inconclusive: 17.8 µM [inhibitor, single point]

SMILES | Potency
C=C(C)c1cccc(C(C)(C)NC(=O)Nc2ccc(OC)cc2)c1 | inactive
Cc1c(NC(=O)c2cc3c(s2)-c2ccccc2OC3)cccc1[N+](=O)[O-] | inconclusive: 35.5 µM [inhibitor, single point]
CCCCc1ccc(NS(=O)(=O)c2ccc(N3CCCCS3(=O)=O)cc2)cc1 | inconclusive: 31.6 µM [inhibitor, single point]
O=C(COc1ccccc1CNC[C@H]1O[C@@H](n2ccc(=O)[nH]c2=O)[C@H](O)[C@@H]1O)N1CCCCC1 | inactive
Cc1ccc(Nc2nc3ccccc3[nH]2)nc1 | inactive
COC(=O)[C@]1(Cc2ccccc2)N[C@H](CN(C)C(=O)Nc2ccc(C(F)(F)F)cc2)[C@@H]2C(=O)N(Cc3ccccc3)C(=O)[C@@H]21 | active: 10 µM
C=C(C)c1cccc(C(C)(C)NC(=O)N2CCN(c3ncccn3)CC2)c1 | inconclusive: 17.8 µM [inhibitor, single point]
CCOc1ccccc1CN1C(=O)c2ccccc2C1C(=O)NCC1CCCO1 (stereo not drawn) | inconclusive: 3.55 µM [inhibitor, full curve, poor fit]
Cc1nc2c(OCCOc3ccc(F)cc3)cccn2c1N(C)C(=O)CCC1CCCC1 | inconclusive: 11.2 µM [inhibitor, single point]
Cc1ccc(N(CC(=O)Nc2cc(C)cc(C)c2)S(=O)(=O)c2c(C)noc2C)cc1 | inconclusive: 17.8 µM [inhibitor, partial curve, poor fit]
C=CCn1c(=O)n2ncnc2c2c3c(sc21)CCCC3 | inactive
O=C(N/N=C/c1cc(Cl)cc([N+](=O)[O-])c1O)c1ccccc1NS(=O)(=O)c1cccs1 | inactive
CC1=CC(C)(C)N(S(=O)(=O)c2ccc(C)cc2)c2ccccc21 | inconclusive: 11.2 µM [inhibitor, partial curve, poor fit]
Cc1ccc2c(C(=O)CNc3nc(C)c(C)s3)c(C)[nH]c2c1 | inconclusive: 22.4 µM [inhibitor, single point]
CCC(=O)Nc1ccc(C(=O)NNC(=O)C(c2ccccc2)c2ccccc2)cc1 | inconclusive: 3.55 µM [inhibitor, partial curve, poor fit]
CCOc1cc(NC(=O)c2cccs2)c(OCC)cc1NC(=O)c1ccccn1 | inconclusive: 1 µM [inhibitor, partial curve, poor fit]
Cc1cccn2c(=O)nc(SCC(=O)c3ccc(Cl)cc3)nc12 | inconclusive: 5.62 µM [inhibitor, single point]
CCOC(=O)c1ccc2c(c1)[C@@H]1C=CC[C@@H]1[C@H](c1cccc(OC)c1OC)N2 | inconclusive: 7.94 µM [inhibitor, partial curve, poor fit]
Fc1ccc(SCCc2ccccn2)cc1 | inconclusive: 0.224 µM [inhibitor, full curve, poor fit]
CCCC(=O)C1=C(c2cccc(OC)c2)N(C(=O)CCC)n2c(C)nnc2S1 | inconclusive: 10 µM [inhibitor, single point]
Cc1ccc(NC(=O)CCn2c(=O)c3cccn3c3ccccc32)c(C)c1 | inactive

SMILES | Potency
C=CCOC(=O)Cn1cnc2c(sc3nc(C)cc(C)c32)c1=O | inactive
CCc1ccc(NC(=S)NC(=O)CC(C)C)cc1 | inactive
Cc1ccc(S(=O)(=O)/N=C2\C=C(NS(=O)(=O)c3ccc(C)cc3)C(=O)c3ccccc32)cc1 | active: 11.2 µM
CC[C@]12c3[nH]c4cc(-c5ccco5)ccc4c3CCN1C(=O)[C@@H](CC(=O)NCc1ccc(OC)c(OC)c1)C[C@@H]2C(=O)N1CCN(C(=O)C2CC2)CC1 | inconclusive: 8.91 µM [inhibitor, partial curve, poor fit]
Cc1cccc(C)c1NC(=O)CSCc1cccc(CSCC(=O)Nc2c(C)cccc2C)n1 | inconclusive: 6.31 µM [inhibitor, single point]
CC(C(=O)Nc1ccc(S(=O)(=O)N2CCCC2)cc1)N1CCN(c2ccccc2O)CC1 (stereo not drawn) | inactive
O=c1ccc(S(=O)(=O)N2CCCC2)cn1Cc1ccc(Cl)cc1Cl | inconclusive: 28.2 µM [inhibitor, single point]
N#CC1(NC(=O)COC(=O)c2cc(O)c3ccccc3c2O)CCCCC1 | inconclusive: 35.5 µM [inhibitor, single point]
CN(C)S(=O)(=O)c1cccc(C(=O)Nc2ccc(N3CCOCC3)cc2)c1 | inactive
C=C1CCN([C@@H](CC(C)C)C(=O)NCc2ccc(OC)cc2)S(=O)(=O)c2ccccc21 | inconclusive: 0.112 µM [inhibitor, full curve, poor fit]
CCc1nn(CC(=O)N2CCN(c3ccc(Cl)cc3)CC2)c(=O)c2cc3occc3n12 | inconclusive: 0.316 µM [inhibitor, full curve, poor fit]
CC(=O)c1ccc(N2CCN(C(=O)c3cc4ccc5cccnc5c4[nH]3)CC2)cc1 | inconclusive: 1.78 µM [inhibitor, full curve, poor fit]
S=C(NCCCN1CCOCC1)N1CCN(c2cccc(Cl)c2)CC1 | inactive
O=C(c1cnc(N2CCCCC2)c2ccccc12)N1CCN(c2ccc(Cl)cc2)CC1 | inconclusive: 11.2 µM [inhibitor, partial curve, poor fit]
O=C(c1ccc2c(c1)N(Cc1ccc(F)cc1)C(=O)c1ccccc1S2(=O)=O)N1CCN(c2ccccn2)CC1 | inconclusive: 8.91 µM [inhibitor, partial curve, poor fit]
Cc1c(O)ccc(/C=N/Nc2nc(-c3cccnc3)nc3ccccc23)c1O | inconclusive: 17.8 µM [inhibitor, partial curve, poor fit]
CCCC1=C(C(=O)OCC)C(c2cccs2)C(C#N)=C(N)O1 (stereo not drawn) | inconclusive: 35.5 µM [inhibitor, single point]
Cc1cccc(C)c1N(C(=O)c1ccco1)C(C(=O)NC1CCCC1)c1ccncc1 (stereo not drawn) | inconclusive: 0.112 µM [inhibitor, full curve, poor fit]
CNC(=O)c1[nH]cnc1C(=O)Nc1ccccc1 | inconclusive: 35.5 µM [inhibitor, single point]
CCc1cccc(NS(=O)(=O)c2ccc3c(c2)N(C)CCO3)c1 | inconclusive: 7.94 µM [inhibitor, partial curve, poor fit]
COc1ccccc1N1CCN(CCCNC(=O)c2cnn(-c3ccc(C)c(C)c3)c2C2CCN(C(=O)OC(C)(C)C)CC2)CC1 | inconclusive: 4.47 µM [inhibitor, partial curve]

— PubChem BioAssay AID588855 (National Center for Advancing Translational Sciences (NCATS), 2011)
